Results: PubChem BioAssay AID652104 (National Center for Advancing Translational Sciences (NCATS), 2013)
The whole screen tested about 410,000 compounds, of which about 7,200 (1.8%) were called active. This list was built around the results that the source calls inconclusive (neither active nor inactive); the mix of calls is not that of the screen. Calls come from the whole dose curve; as a rule, active = well fitted activation curve with a large enough effect; inconclusive = small, poorly fitted or top-dose-only effect, or another doubt; inactive = no such curve, though single readings can be large or run the other way. Potencies of inconclusive entries are left out as doubtful fits.

Assay: qHTS of TDP-43 Inhibitors; note: nearly all actives have a fitted effect of over 50% in size
Details: TDP-43 expressing yeast growth rescue, BacTiter-Glo, 24 h; series mostly up to 46.1 µM
Procedure, shortened: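 In this qHTS, compounds that restore growth of yeast expressing TDP-43 appear as activators. Cells (OD600=0.02, galactose medium, raffinose-pregrown) are incubated with compound 24 hr at 30 deg C and growth is quantified by BacTiter-Glo.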
Potency is the fitted concentration of half-maximal effect; tags give direction and shape of the fitted curve.

| SMILES | Potency |
| --- | --- |
| COc1ccc(N2CCN(C(=O)c3cc4c(s3)CCCCC4)CC2)cc1 | inconclusive [activator, partial curve] |
| CCn1nc(C)c(Br)c1-c1nc(CS(=O)(=O)c2ccsc2)no1 | inconclusive [activator, partial curve] |
| CC(C)(C)n1nnnc1C(c1cccnc1)N1CCN(c2cccc(C(F)(F)F)c2)CC1 (configuration not stated) | inconclusive [activator, single point] |
| Oc1ccc(-c2cccc(-c3ccc(O)cc3)c2)cc1 | active: 6.31 µM |
| Cc1ccc(CN2C(=O)CC(Nc3ccc(N4CCOCC4)cc3)C2=O)cc1 (configuration not stated) | inconclusive [activator, single point] |
| COc1ccc2c(c1)C(CC(C)=O)N(c1ccc(-c3cccnc3)cc1)C(c1ccsc1)=C2 (configuration not stated) | inconclusive [activator, partial curve, poor fit] |
| COC(=O)c1cc(NS(=O)(=O)c2ccc(NCc3cccnc3)c([N+](=O)[O-])c2)cc(C(=O)OC)c1 | inactive |
| Cc1ccccc1C(=O)c1cccn1CC(=O)NCCC1=CCCCC1 | inconclusive [activator, partial curve, poor fit] |
| COc1ccc(N2CCN(C(=O)c3sc4nc5n(c(=O)c4c3C)CCC5)CC2)cc1 | inconclusive [activator, single point] |
| CC1(C)CC(=O)C(N=Nc2ccc(C(F)(F)F)cc2[N+](=O)[O-])=C(O)C1 | inconclusive [activator, single point] |
| O=C(OCC(=O)N1CCN(C(=O)c2ccco2)CC1)c1cc(-c2ccc(F)cc2)nc2ccccc12 | inconclusive [activator, single point] |
| NC(=O)c1c(NC(=O)c2cccs2)sc2c1CCCCCC2 | inconclusive [activator, single point] |
| COc1ccc(Cc2nc3ccc(C(=O)NCCCN4CCN(C)CC4)cc3o2)cc1 | inconclusive [activator, single point] |
| O=C(c1ccc2c(c1)OCCO2)N(Cc1cccnc1)c1nc2c(F)cc(F)cc2s1 | inconclusive [activator, partial curve] |
| COc1cccc(CNS(=O)(=O)c2ccc(-c3cc(C(F)(F)F)on3)s2)c1 | inconclusive [activator, partial curve] |
| CCc1cccc(NC(=O)c2oc3ccc4c(c3c2C)C(=O)CC(C)(C)O4)c1 | inactive |
| CC(C)Sc1nc(N)nc(-c2cccs2)c1C#N | active: 17.8 µM |
| Cc1oc(-c2cccc(Cl)c2)nc1CSCC(=O)NCc1ccccc1Cl | active: 22.4 µM |
| CC(=O)Nc1ccc(-c2c(C)cc3oc(=O)cc(-c4ccccc4)c3c2C)cc1 | inconclusive [activator, single point] |
| CCS(=O)(=O)c1ccccc1C(=O)N1CCN(c2nc3ccccc3s2)CC1 | inconclusive [activator, single point] |
| C=CCNC(=O)c1onc(CSc2ccc(Cl)cc2)c1C(=O)NCC=C | inconclusive [activator, partial curve] |
| Cc1cc(/C=C(\C#N)C(=O)OCC#N)c(C)n1CC(C)C | inconclusive [activator, single point] |
| COC(=O)CN1C(C(=O)c2ccccc2)=C(OC(=O)c2ccc(C)cc2)c2ccccc2S1(=O)=O | inactive |

| SMILES | Potency |
| --- | --- |
| C=CCSc1nc2ccccc2n2cnnc12 | inconclusive [activator, single point] |
| C=C(C)Cn1c2ccc(NC(=O)CCc3cccnc3)cc2c(=O)n1C | inactive |
| O=C(c1ccc2c(=O)n3c(nc2c1)CCCCC3)N1CCc2ccccc21 | inconclusive [activator, partial curve] |
| O=[N+]([O-])c1cc(/C=N/N2CCOCC2)cs1 | inconclusive [activator, partial curve] |
| CCOC(=O)c1c(C)oc2nc(C)nc(N3CCN(c4ccc(OC)cc4)CC3)c12 | inconclusive [activator, partial curve] |
| COc1ccccc1Cn1c(SCC(=O)C(C)(C)C)nc2ccccc2c1=O | inactive |
| COc1cc(/C=N/OCC(=O)Nc2cc(C)cc(C)c2)ccc1OCc1ccc(Cl)cc1 | inconclusive [activator, full curve, poor fit] |
| COC(=O)c1ccccc1NC(=O)CSc1nc2nc(C)cc(C)n2n1 | inactive |
| Cc1ccc(C(=O)Nc2ccc(Br)cc2)cc1S(=O)(=O)NCc1ccccc1 | inconclusive [activator, full curve] |
| CC(=O)Nc1ccc2c(c1)-c1ccc(F)cc1C2 | inconclusive [activator, single point] |
| COc1ccc(Cl)cc1C(=O)NCCS(=O)(=O)N1CCN(c2ccccc2F)CC1 | inconclusive [activator, single point] |
| O=C(COC(=O)c1ccccc1Br)Nc1ccc2[nH]c(=O)[nH]c2c1 | inactive |
| COc1cccc(N/C=C/C(=O)c2ccc(C)cc2)c1 | inconclusive [activator, partial curve] |
| COCCNC(=O)c1ccc(-c2nc(CN3CCc4ccccc43)c(C)o2)cc1 | inconclusive [activator, partial curve] |
| CC(C)OCCCNC(=O)CN1C(=O)COc2ccc(S(=O)(=O)N3CCOCC3)cc21 | inactive |
| COc1ccccc1NC(=O)c1ncoc1-c1ccco1 | inconclusive [activator, full curve] |
| CCOC(=O)[C@]12CCC=C1N(Cc1ccccc1)C(=O)[C@H](CC(=O)NCC1CCCCC1)C2 | inactive |
| O=C(c1cnc(N2CCCCC2)c2ccccc12)N1CCN(c2cccc(Cl)c2)CC1 | inconclusive [activator, single point] |
| COc1c(C)cc(Br)cc1C(=O)Nc1cccc(-c2nc3ncccc3o2)c1 | active: 12.6 µM |
| COc1ccc(-n2c(=O)c(CCC(=O)N(C)Cc3cccs3)nc3ccccc32)cc1 | inconclusive [activator, single point] |
| CCCNC(=O)CNC(=S)N(Cc1ccccc1F)C1CCCCC1 | inconclusive [activator, partial curve, poor fit] |
| CCOC(=O)c1ccccc1NC(=O)COC(=O)c1c(CC)noc1C | inconclusive [activator, partial curve] |
| Cc1csc(NC(=O)c2ccoc2C)n1 | inconclusive [activator, partial curve] |

| SMILES | Potency |
| --- | --- |
| Cn1cccc1C(=O)OCC(=O)NCCc1ccccc1 | inconclusive [activator, single point] |
| CCc1cccc(NC(=O)CN(c2ccc(C)cc2)S(=O)(=O)c2cccs2)c1 | inactive |
| C[C@H]1CN([C@@H](C)CO)C(=O)CCCn2cc(nn2)CO[C@@H]1CN(C)S(=O)(=O)c1ccc2c(c1)OCCCO2 | inactive |
| CC(=O)C(=Nc1cccc(Cl)c1)NNc1ccccc1C | inconclusive [activator, single point] |
| Cc1cc(C)cc(Nc2c3c(nc4ncnn24)CCC3)c1 | inconclusive [activator, single point] |
| COc1cccc(C(=O)NCCc2csc(-c3cccc(F)c3)n2)c1OC | inconclusive [activator, single point] |
| CN(C)CCNc1ncnc2c1ncn2[C@H]1CN(Cc2ccccc2)C[C@@H](CO)O1 | inconclusive [activator, single point] |
| N#Cc1ccc(Nc2nc(NCc3ccccc3)nc3ccsc23)cc1 | inconclusive [activator, partial curve] |
| CC(C)N(C(=O)[C@H]1C[C@H](CC(=O)NCCC2=CCCCC2)C(=O)N2CCc3c([nH]c4ccc(Cl)cc34)[C@]12C)C(C)C | inconclusive [activator, partial curve] |
| O=C(Oc1cccc(C(=S)N2CCOCC2)c1)c1ccc([N+](=O)[O-])cc1 | inconclusive [activator, partial curve] |
| O=C(CSc1ccc(Cl)cc1)N1N=CCC1c1ccccc1 (configuration not stated) | active: 12.6 µM |
| CC(C)Cn1cc(C(=O)N2CCC(C)CC2)c2c3ccccc3n(C)c2c1=O | inconclusive [activator, single point] |
| COc1ccc(Cl)cc1C1CC(=O)Nc2cc3c(cc21)OCCO3 (configuration not stated) | inactive |
| COc1cccc(CNC(=O)C(=O)NCC2CCCN2S(=O)(=O)c2cc(C)ccc2C)c1 (configuration not stated) | inconclusive [activator, single point] |
| Nc1nc(CSc2ccc(Cl)cc2)nc(N2CCCCC2)n1 | inconclusive [activator, single point] |
| CN(c1ccccc1C(=O)Nc1cccc([N+](=O)[O-])c1)S(=O)(=O)c1ccccc1 | active: 22.4 µM |
| NS(=O)(=O)c1ccc(NC(=S)Nc2ccc(C(=O)N3CCCCC3)cc2)cc1 | inactive |
| CC(CNC(=O)C1CCN(S(=O)(=O)c2ccc3c(ccn3C)c2)CC1)c1ccccc1 (configuration not stated) | inactive |
| Cc1cccc(NC(=O)CCCN2C(=O)c3ccccc3C2=O)n1 | inactive |
| COC1=CC(=O)OC(c2ccc(C(F)(F)F)cc2)C1 (configuration not stated) | inconclusive [activator, partial curve] |
| O=C(NC(=S)NCc1ccccc1)c1ccccc1F | inconclusive [activator, full curve] |
